# Test results as given in the supplement of paper PMC6531468.
# This is one part of the list. These are enrichments in a pooled selection; single values are uncertain. Scores sum up all selected molecules that hold the word; the word was not tested alone.
# Test system: IMP3 KH1-4
# Assay: 6-mer SELEX enrichment z-score vs GST control; IMP3 is the RNA-binding protein IGF2BP3; higher = more enriched by binding
# Settings: construct: KH1-4 (164-579); SELEX round: R4
# Experimental: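 SELEX-seq with GST-tagged IMP3 KH1-4 (Pro164-Lys579) and an N40 RNA pool, round 4. 6-mer z-score of sequence-tag enrichment normalised to the corresponding GST SELEX round; RNA k-mers written as DNA (T for U).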
# Sequence of IMP3 KH1-4 (chain, as listed by the source): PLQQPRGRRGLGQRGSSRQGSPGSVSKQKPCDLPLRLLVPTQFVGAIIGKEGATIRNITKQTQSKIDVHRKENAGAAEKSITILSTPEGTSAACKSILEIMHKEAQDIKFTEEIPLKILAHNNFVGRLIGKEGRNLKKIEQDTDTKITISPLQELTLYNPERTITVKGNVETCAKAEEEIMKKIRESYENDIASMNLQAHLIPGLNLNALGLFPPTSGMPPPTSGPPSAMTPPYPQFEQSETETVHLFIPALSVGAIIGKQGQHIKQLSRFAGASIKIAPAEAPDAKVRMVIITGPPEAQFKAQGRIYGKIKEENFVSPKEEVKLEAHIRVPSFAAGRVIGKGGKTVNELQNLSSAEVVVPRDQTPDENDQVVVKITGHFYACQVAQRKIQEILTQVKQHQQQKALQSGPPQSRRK
row,Sequence,6-mer SELEX enrichment z-score
1,GGGGGA,0.955
2,ATTCGT,0.237
3,CACTCG,-1.18
4,GGTATC,-0.527
5,CGTGCG,-1.36
6,CGAATC,-0.892
7,GTTATT,0.308
8,CGTAGG,-1.01
9,AAGAGC,-3.33
10,GACAGT,0.486
11,CGGTCC,0.069
12,ATACCA,-0.141
13,TAGTAA,0.013
14,ATGGGG,1.37
15,ACTTAG,-0.136
16,AGGATC,0.205
17,GGTGGC,0.715
18,TGAGCA,-1.23
19,ATACAG,1.71
20,TAAAAG,-0.292

row,Sequence,6-mer SELEX enrichment z-score
1,GCGAAC,-1.41
2,AATTCA,1.42
3,CTCCAA,-0.853
4,TAAAAA,-0.68
5,CCCCTC,-0.428
6,CTGAGG,-0.133
7,GTGGCG,0.454
8,GCTCAT,0.361
9,AGAATG,0.945
10,GGCTGT,0.26
11,ACACCA,0.438
12,AATTTC,1
13,GGATGA,1.01
14,GCCCAA,-2.39
15,CTAAAA,-0.883
16,GCTCGG,-0.204
17,CGTGTC,-0.71
18,ATCTAA,0.254
19,CACCTG,-0.938

# Test system: IMP3 RRM1-2
# Assay: as above
# Settings: construct: RRM1-2 (1-163); SELEX round: R2
# Experimental: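 SELEX-seq with GST-tagged IMP3 RRM1-2 (Met1-Asn163) and an N40 RNA pool, round 2. 6-mer enrichment z-score normalised to GST SELEX. RNA written as DNA (T = U).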
# Sequence of IMP3 RRM1-2 (chain, as listed by the source): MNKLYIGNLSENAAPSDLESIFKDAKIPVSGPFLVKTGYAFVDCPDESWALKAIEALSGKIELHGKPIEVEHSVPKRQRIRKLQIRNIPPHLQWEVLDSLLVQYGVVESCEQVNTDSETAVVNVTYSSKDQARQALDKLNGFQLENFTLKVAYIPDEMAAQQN
row,Sequence,6-mer SELEX enrichment z-score
1,GGGGGA,-0.13
2,ATTCGT,0.228
3,CACTCG,0.5
4,GGTATC,0.455
5,CGTGCG,0.093
6,CGAATC,-0.162
7,GTTATT,0.344
8,CGTAGG,0.7
9,AAGAGC,-0.97
10,GACAGT,-0.216
11,CGGTCC,0
12,ATACCA,0.043
13,TAGTAA,-0.216
14,ATGGGG,0.225
15,ACTTAG,0.114
16,AGGATC,0.635
17,GGTGGC,0.334
18,TGAGCA,0.125
19,ATACAG,0.736
20,TAAAAG,-1.59

row,Sequence,6-mer SELEX enrichment z-score
1,GCGAAC,-0.384
2,AATTCA,1.46
3,CTCCAA,-0.292
4,TAAAAA,-2.56
5,CCCCTC,-0.057
6,CTGAGG,-0.106
7,GTGGCG,0.307
8,GCTCAT,0.815
9,AGAATG,-1.04
10,GGCTGT,0.328
11,ACACCA,1.99
12,AATTTC,0.047
13,GGATGA,-0.625
14,GCCCAA,-1.07
15,CTAAAA,-1.87
16,GCTCGG,0.426
17,CGTGTC,0.045
18,ATCTAA,-0.262
19,CACCTG,-0.183

# Target: IMP3 full-length (UniProt O00425)
# Assay: as above
# Settings: construct: FL IMP3 (1-579); SELEX round: R4
# Experimental: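 SELEX-seq with GST-tagged full-length IMP3 and an N40 RNA pool, round 4. Each 6-mer is scored as an enrichment z-score of sequence tags containing it, normalised to the matching GST SELEX round. RNA written as DNA (T = U).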
# Sequence of UniProt O00425 (O00425 whole entry): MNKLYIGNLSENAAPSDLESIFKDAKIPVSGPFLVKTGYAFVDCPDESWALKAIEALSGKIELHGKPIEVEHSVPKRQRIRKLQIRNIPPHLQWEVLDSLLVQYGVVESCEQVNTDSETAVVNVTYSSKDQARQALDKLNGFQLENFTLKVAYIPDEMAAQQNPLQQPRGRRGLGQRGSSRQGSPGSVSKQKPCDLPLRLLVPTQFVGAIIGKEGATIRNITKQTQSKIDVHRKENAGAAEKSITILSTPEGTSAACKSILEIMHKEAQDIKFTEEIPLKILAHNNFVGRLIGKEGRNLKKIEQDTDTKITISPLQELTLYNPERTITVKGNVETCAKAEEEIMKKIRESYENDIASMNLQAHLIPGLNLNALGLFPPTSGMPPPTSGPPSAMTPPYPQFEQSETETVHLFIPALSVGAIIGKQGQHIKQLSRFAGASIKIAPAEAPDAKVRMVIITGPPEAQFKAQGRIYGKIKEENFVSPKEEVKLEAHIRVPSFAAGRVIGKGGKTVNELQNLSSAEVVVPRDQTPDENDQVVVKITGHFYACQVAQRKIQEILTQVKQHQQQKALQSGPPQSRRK
row,Sequence,6-mer SELEX enrichment z-score
1,GGGGGA,0.294
2,ATTCGT,0.038
3,CACTCG,-0.009
4,GGTATC,-0.035
5,CGTGCG,-0.476
6,CGAATC,-0.263
7,GTTATT,0.029
8,CGTAGG,-0.217
9,AAGAGC,-1.94
10,GACAGT,0.384
11,CGGTCC,0.414
12,ATACCA,-0.497
13,TAGTAA,-0.373
14,ATGGGG,0.56
15,ACTTAG,-0.246
16,AGGATC,0.162
17,GGTGGC,0.764
18,TGAGCA,-0.275
19,ATACAG,1.5
20,TAAAAG,-1.17

row,Sequence,6-mer SELEX enrichment z-score
1,GCGAAC,-0.232
2,AATTCA,1.62
3,CTCCAA,-0.78
4,TAAAAA,-2.53
5,CCCCTC,-0.54
6,CTGAGG,-0.021
7,GTGGCG,0.533
8,GCTCAT,0.733
9,AGAATG,-0.372
10,GGCTGT,0.439
11,ACACCA,0.497
12,AATTTC,0.174
13,GGATGA,0.001
14,GCCCAA,-1.75
15,CTAAAA,-1.99
16,GCTCGG,0.644
17,CGTGTC,-0.016
18,ATCTAA,-0.316
19,CACCTG,-0.603

# Test system: IMP3 KH3-4
# Assay: as above
# Settings: construct: KH3-4 (377-579); SELEX round: R4
# Experimental: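 SELEX-seq with GST-tagged IMP3 KH3-4 (Pro377-Lys579) and an N40 RNA pool, round 4. 6-mer z-score of sequence-tag enrichment normalised to the corresponding GST SELEX round; RNA k-mers written as DNA (T for U).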
# Sequence of IMP3 KH3-4 (chain, as listed by the source): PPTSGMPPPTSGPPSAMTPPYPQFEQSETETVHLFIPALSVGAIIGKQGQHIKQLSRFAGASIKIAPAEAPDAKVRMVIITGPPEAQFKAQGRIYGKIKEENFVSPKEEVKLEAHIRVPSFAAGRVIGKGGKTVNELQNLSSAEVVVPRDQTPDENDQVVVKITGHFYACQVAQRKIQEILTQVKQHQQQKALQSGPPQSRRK
row,Sequence,6-mer SELEX enrichment z-score
1,GGGGGA,1.12
2,ATTCGT,0.21
3,CACTCG,-1.19
4,GGTATC,-0.348
5,CGTGCG,-1.1
6,CGAATC,-1.05
7,GTTATT,0.414
8,CGTAGG,-0.767
9,AAGAGC,-2.86
10,GACAGT,0.117
11,CGGTCC,-0.403
12,ATACCA,-0.455
13,TAGTAA,0.305
14,ATGGGG,1.64
15,ACTTAG,0.061
16,AGGATC,0.183
17,GGTGGC,0.689
18,TGAGCA,-1
19,ATACAG,1.79
20,TAAAAG,0.576

row,Sequence,6-mer SELEX enrichment z-score
1,GCGAAC,-1.43
2,AATTCA,1.57
3,CTCCAA,-1.14
4,TAAAAA,1.09
5,CCCCTC,-1.01
6,CTGAGG,-0.099
7,GTGGCG,0.783
8,GCTCAT,0.316
9,AGAATG,1.31
10,GGCTGT,0.443
11,ACACCA,-0.651
12,AATTTC,1.07
13,GGATGA,0.986
14,GCCCAA,-2.52
15,CTAAAA,-0.297
16,GCTCGG,0.019
17,CGTGTC,-0.67
18,ATCTAA,0.184
19,CACCTG,-1.31
